Assay results from ChEMBL document CHEMBL5046221, “Identification of Pyrimidine-Based Lead Compounds for Understudied Kinases Implicated in Driving Neurodegeneration” (J Med Chem, 2022).
Calls of active or inactive are those of the source. The calls are words filed in the database; no cut-off is given here.

How the values were obtained:
[1] = target: T1, Serine/threonine-protein kinase ULK3 (Homo sapiens, UniProt Q6PHR2); assay: Inhibition of full length recombinant human ULK3 using casein as substrate incubated for 40 mins in presence of [gamma-33P-ATP] by radiometric scintillation assay
T1 sequence (Q6PHR2 whole entry): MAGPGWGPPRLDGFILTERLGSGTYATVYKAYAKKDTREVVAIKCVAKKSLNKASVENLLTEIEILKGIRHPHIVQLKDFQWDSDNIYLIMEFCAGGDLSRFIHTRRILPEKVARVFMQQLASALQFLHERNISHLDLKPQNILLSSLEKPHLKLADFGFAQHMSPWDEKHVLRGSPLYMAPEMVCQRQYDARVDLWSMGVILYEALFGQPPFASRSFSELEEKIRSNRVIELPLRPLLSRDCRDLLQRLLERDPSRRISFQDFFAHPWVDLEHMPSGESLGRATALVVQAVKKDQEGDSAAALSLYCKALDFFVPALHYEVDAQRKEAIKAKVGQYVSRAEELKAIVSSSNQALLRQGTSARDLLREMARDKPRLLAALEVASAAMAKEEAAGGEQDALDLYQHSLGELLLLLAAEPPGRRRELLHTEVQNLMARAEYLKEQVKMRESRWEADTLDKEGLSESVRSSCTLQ
Summary of the method: (§1)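 Eurofins radiometric enzymatic assay with ATP at Km for each kinase. IC50 was derived from a 9-point dose–response curve run in duplicate.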

[2] = target: Casein kinase II subunit alpha' (Homo sapiens, UniProt P19784); assay: Inhibition of full length recombinant human CSNK2A2 using RRRDDDSDDD a substrate incubated for 40 mins in presence of [gamma-33P-ATP] by radiometric scintillation assay; summary of the method: as §1
[3] = target: Macrophage colony-stimulating factor 1 receptor (Homo sapiens, UniProt P07333); assay: Inhibition of recombinant human FMS (538 to end residues) using KKKSPGEYVNIEFG as substrate measured after 40 mins in presence of [gamma33P]ATP by radiometric scintillation counting method
Summary of the method: (§2)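 Eurofins radiometric kinase assay run at ATP equal to Km for each kinase. 9-point dose–response in duplicate gives the IC50.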

[4] = target: AP2-associated protein kinase 1 (Homo sapiens, UniProt Q2M2I8); assay: Inhibition of human AAK1 using peptide as substrate incubated for 120 mins in presence of [gamma-33ATP] by scintillation counting based radiometry assay; summary of the method: as §2
[5] = target: T2, NUAK family SNF1-like kinase 1 (Homo sapiens, UniProt O60285); assay: Inhibition of NanoLuc-fused NUAK1 (unknown origin) expressed in HEK293 cells incubated for 2 hrs by NanoBRET assay; assay type: cell-based
T2 sequence (O60285 whole entry): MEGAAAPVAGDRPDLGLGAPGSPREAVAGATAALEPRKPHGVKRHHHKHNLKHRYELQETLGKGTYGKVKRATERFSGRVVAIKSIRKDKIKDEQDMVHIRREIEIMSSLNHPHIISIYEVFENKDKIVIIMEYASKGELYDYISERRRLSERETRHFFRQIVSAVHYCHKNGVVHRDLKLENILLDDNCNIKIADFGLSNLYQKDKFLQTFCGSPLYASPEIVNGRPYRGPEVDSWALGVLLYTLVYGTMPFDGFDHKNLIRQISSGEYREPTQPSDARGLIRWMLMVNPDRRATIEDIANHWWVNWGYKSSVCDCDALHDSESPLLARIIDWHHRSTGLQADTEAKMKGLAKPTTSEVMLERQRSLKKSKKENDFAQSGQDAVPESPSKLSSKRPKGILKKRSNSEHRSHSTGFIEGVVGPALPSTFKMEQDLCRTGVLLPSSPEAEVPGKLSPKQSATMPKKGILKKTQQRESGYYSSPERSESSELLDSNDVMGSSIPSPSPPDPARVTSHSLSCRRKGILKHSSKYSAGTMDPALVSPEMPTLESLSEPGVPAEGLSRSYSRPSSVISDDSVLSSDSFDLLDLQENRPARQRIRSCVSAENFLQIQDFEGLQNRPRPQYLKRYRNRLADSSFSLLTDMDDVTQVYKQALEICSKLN
Summary of the method: (§3)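 Cellular NanoBRET target-engagement assays were run by Carna Biosciences to the manufacturer's protocol. Dose–response was in singlicate, with compounds tested at concentrations up to 10 μM.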

[6] = target: Phosphatidylinositol 4-phosphate 5-kinase type-1 alpha (Homo sapiens, UniProt Q99755); assay: Inhibition of full length recombinant human PIP5K1A using phosphatidylinositol 4-phosphate/phosphatidylserine as substrate incubated for 30 mins in presence of ATP by fluorescence based HTRF assay
[7] = target: Non-receptor tyrosine-protein kinase TYK2 (Homo sapiens, UniProt P29597); assay: Inhibition of human TYK2 (875 to end residues) using GGMEDIYFEFMGGKKK as substrate measured after 40 mins in presence of [gamma33P]ATP by radiometric scintillation counting method; summary of the method: as §1
[8] = target: T3, BMP-2-inducible protein kinase (Homo sapiens, UniProt Q9NSY1); assay: Inhibition of recombinant human BIKe using peptide as substrate incubated for 120 mins in presence of [gamma-33ATP] by scintillation counting based radiometry assay; summary of the method: as §1
[9] = target: Serine/threonine-protein kinase 16 (Homo sapiens, UniProt O75716); assay: Inhibition of human STK16 in presence of [gamma-33P-ATP] by radiometric scintillation assay; summary of the method: as §2
[10] = target: T3, BMP-2-inducible protein kinase; assay: Inhibition of NanoLuc-fused BMP2K (unknown origin) expressed in HEK293 cells incubated for 2 hrs by NanoBRET assay; assay type: cell-based; summary of the method: as §3
[11] = target: T4, NUAK family SNF1-like kinase 2 (Homo sapiens, UniProt Q9H093); assay: Inhibition of full length recombinant human NUAK2 using KKKVSRSGLYRSPSMPENLNRPR as substrate incubated for 40 mins in presence of [gamma-33P-ATP] by radiometric scintillation assay; summary of the method: as §1
T4 sequence (Q9H093 whole entry): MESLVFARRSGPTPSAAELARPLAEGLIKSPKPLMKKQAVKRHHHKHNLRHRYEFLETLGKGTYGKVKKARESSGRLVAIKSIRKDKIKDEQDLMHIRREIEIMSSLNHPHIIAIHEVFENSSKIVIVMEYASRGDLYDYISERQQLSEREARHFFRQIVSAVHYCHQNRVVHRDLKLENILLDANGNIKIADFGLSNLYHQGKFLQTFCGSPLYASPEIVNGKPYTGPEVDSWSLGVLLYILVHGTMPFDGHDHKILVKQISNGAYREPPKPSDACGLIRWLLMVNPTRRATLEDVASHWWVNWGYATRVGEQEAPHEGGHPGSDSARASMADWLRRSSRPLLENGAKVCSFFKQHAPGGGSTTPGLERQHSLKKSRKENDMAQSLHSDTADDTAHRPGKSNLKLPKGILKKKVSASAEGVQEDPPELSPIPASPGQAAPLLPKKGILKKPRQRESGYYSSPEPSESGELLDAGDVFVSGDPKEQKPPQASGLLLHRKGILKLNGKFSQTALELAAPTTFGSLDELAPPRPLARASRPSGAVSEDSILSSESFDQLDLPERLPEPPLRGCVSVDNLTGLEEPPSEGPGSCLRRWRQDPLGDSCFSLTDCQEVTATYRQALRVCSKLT

Chain of UniProt P19784 (P19784 whole entry): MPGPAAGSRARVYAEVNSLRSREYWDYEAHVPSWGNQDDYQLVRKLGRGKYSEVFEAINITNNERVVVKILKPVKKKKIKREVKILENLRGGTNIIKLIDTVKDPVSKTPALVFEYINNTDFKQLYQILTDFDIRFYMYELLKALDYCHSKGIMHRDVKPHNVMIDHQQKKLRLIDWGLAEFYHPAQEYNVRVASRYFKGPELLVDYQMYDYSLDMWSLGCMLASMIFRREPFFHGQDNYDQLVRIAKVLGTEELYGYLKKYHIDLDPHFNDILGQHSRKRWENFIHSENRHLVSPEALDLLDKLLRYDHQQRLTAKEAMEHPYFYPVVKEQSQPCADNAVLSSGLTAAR
Chain of UniProt O75716 (O75716 whole entry, the tested form may be a part): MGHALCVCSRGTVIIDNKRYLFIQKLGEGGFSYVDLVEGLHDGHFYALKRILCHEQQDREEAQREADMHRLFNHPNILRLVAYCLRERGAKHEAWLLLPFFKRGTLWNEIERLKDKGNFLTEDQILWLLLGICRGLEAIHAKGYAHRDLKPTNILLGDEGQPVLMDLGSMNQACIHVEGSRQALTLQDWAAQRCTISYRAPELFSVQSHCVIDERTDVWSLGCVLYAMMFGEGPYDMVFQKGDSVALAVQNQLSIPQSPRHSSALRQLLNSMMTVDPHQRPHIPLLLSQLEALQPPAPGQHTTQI
Chain of UniProt Q99755 (Q99755 whole entry): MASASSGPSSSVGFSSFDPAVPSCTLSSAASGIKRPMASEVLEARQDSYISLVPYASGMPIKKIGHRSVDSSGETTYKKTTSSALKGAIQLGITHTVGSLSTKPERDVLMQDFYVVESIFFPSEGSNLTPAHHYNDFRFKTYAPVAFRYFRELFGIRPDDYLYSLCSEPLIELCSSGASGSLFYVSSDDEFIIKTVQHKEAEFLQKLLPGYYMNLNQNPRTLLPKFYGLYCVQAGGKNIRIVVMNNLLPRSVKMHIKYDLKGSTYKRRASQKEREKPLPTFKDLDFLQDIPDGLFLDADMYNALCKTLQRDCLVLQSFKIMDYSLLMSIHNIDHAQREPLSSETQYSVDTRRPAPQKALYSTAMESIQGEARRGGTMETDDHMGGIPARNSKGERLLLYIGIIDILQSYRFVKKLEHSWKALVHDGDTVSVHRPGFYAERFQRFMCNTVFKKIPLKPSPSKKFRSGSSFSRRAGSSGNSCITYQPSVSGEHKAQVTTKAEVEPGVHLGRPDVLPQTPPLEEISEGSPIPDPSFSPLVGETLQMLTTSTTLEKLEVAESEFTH
Chain of UniProt P29597 (P29597 whole entry): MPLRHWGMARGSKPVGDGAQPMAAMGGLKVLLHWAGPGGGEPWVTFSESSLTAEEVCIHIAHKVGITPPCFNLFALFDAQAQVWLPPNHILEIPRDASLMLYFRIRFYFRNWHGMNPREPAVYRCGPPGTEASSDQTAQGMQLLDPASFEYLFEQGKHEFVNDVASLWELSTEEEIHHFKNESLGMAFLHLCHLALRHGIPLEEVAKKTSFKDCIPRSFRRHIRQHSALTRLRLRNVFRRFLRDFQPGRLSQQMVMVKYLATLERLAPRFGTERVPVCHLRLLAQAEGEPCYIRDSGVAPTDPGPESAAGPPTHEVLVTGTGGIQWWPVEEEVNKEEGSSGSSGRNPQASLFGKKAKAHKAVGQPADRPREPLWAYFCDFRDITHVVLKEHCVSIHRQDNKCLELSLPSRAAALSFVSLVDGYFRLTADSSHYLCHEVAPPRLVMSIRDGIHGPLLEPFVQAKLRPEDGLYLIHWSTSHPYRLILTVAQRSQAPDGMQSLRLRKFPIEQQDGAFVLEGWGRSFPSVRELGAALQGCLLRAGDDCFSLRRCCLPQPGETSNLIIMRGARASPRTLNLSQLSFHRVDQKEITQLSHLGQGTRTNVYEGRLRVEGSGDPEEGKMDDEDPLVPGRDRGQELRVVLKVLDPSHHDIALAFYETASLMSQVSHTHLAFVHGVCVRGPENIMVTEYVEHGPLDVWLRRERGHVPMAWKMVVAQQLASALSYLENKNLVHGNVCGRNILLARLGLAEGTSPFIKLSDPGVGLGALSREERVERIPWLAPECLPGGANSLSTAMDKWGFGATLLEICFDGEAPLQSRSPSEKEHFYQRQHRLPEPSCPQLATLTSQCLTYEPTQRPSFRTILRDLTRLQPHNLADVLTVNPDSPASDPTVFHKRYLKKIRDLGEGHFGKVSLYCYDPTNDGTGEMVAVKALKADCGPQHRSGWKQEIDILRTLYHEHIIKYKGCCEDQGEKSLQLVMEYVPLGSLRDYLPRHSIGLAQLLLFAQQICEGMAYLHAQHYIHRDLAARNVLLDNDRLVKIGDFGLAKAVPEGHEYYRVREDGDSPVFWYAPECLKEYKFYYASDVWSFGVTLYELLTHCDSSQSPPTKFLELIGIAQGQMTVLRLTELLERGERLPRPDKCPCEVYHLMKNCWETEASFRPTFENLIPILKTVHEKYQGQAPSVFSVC
Chain of UniProt P07333 (P07333 whole entry): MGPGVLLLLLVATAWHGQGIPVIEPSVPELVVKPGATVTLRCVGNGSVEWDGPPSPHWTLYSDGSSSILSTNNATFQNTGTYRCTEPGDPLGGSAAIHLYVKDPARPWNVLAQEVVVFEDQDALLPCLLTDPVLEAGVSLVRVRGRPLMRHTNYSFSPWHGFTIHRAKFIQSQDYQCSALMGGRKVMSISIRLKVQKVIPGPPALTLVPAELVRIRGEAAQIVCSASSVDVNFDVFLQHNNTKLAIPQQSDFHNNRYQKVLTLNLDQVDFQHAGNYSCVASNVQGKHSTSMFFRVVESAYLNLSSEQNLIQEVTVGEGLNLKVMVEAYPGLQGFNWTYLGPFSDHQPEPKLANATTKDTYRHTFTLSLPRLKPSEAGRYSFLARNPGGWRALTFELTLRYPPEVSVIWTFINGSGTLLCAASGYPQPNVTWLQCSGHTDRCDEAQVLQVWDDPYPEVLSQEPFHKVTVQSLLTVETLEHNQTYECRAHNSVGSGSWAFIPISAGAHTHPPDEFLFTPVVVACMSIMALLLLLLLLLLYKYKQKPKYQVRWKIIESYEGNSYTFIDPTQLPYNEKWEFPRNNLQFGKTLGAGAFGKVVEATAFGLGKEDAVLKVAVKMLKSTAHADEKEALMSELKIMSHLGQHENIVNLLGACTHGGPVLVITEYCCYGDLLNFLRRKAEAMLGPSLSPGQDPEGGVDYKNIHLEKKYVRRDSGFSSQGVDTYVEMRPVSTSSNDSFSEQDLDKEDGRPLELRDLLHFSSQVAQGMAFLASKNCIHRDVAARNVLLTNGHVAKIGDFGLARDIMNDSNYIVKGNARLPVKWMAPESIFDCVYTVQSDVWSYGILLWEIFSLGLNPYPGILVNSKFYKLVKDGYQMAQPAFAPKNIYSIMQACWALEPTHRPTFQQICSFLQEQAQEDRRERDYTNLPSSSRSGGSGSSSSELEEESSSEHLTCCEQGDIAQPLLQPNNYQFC

Row | SMILES | IC50 [1] | IC50 [2] | IC50 [3] | IC50 [4] | IC50 [5] | IC50 [6] | IC50 [7] | IC50 [8] | inhibition [8] | IC50 [9] | IC50 [10] | inhibition [4] | IC50 [11]
1 | Cc1nn(CC(F)(F)F)cc1Nc1ncc(C2CC2)c(NCCCNC(=O)C2CCC2)n1 | 343 nM |  |  |  |  |  |  |  |  |  |  |  | 
2 | NS(=O)(=O)c1ccc(CNc2nc(Nc3cccc(CN4CCOCC4)c3)ncc2Br)cc1 | 1370 nM | 2300 nM | 192 nM | 80 nM | 7.01 µM | > 10 µM | 67 nM | 38 nM | Active | 88 nM | 1020 nM |  | 
3 | NS(=O)(=O)c1ccc(CNc2nc(Nc3cccc(NC(=O)N4CCCC4)c3)ncc2Br)cc1 |  | 2270 nM |  | 74 nM | > 10 µM | > 10 µM | 48 nM | 40 nM | Active | 82 nM | 3000 nM | Active | 900 nM
4 | Cc1nn(CC(F)(F)F)cc1Nc1ncc(Br)c(NCc2ccc(S(N)(=O)=O)cc2)n1 | 946 nM |  | 264 nM |  |  |  |  |  |  |  |  |  | 1150 nM
